Among the data in ChEMBL document CHEMBL1157539, “Thousands of chemical starting points for antimalarial lead identification” (Nature, 2010) are IFI values, retold here.

Whole data set: some 13,000 compounds, median “IFI” near 4, cut for the highest 2% near 17. This is one part of the list.

The nature of the experiment: GSK_TCMDC: Inhibition Frequency Index (IFI). The number of non-kinase HTS assays where a compound showed > 50 % inhibition, expressed as a percentage of the number of such assays in which the compound was tested (-0 is zero). The experiment is classed as functional.
Take `COC(=O)C(=C(C)C)N1C(=O)[C@@H](NC(=O)OCc2ccccc2)[C@H]1SS[C@@H]1[C@H](NC(=O)OCc2ccccc2)C(=O)N1C(C(=O)OC)=C(C)C`: the IFI is 4.41%.
As for `COc1ccc(S(=O)(=O)NCCCC2CCN(CCCCCNC(=O)C=Cc3ccc(Cl)c(Cl)c3)CC2)cc1`, the IFI turned out to be 8.7%.
As to `O=C(Nc1cccc(C(F)(F)F)c1)Nc1cc(F)c(F)cc1Cl`, the IFI is 11.6%.
The figure for `O=c1ccc(-c2nc3cc(Cl)c(Cl)cc3n2Cc2ccc(Cl)cc2Cl)c[nH]1` is 3.33%; for `CCCCCCn1c(Sc2ccc(C#N)c([N+](=O)[O-])c2)nnc1-c1ccc(OC)cc1` it is 7.09%; for `CC1Cc2ccccc2N1CC(=O)Nc1cc(C(F)(F)F)ccc1-n1cncn1` (centres undefined) it is 5.66%.
On to `O=C(Nc1cccc(-c2ccc(-c3nc4ccccc4[nH]3)cc2)c1)Nc1ccc2c(c1)OCO2`, for which the IFI worked out at 4.04%.
In the case of `COc1ccc(NC(=O)Nc2cc(C)nc3cccnc23)cc1Cn1ccnc1`, the IFI is 1.37%.
Compound `Cc1cc(F)ccc1Nc1nc(N(C)c2ccccc2)c2cc(OCCCN(C)C)ccc2n1` showed an IFI of 10.8%.
Turning to `CC(C)CCNC(=O)[C@@H]1[C@H]2C(=O)N(C3CCCCC3)C(=O)[C@H]2[C@H]2C=C[C@@H]3C(c4ccc(C(C)(C)C)cc4)=NO[C@@H]3N21`, the IFI came to 1.47%.
With `O=C(NC1CCN(Cc2ccc(O)cc2)CC1)c1ccc(Cl)c(Cl)c1`, the IFI was found to be 3.45%.
In turn, `c1ccc(Oc2cccc(Nc3ccnc4ccccc34)c2)cc1` yielded an IFI of 8.03%.
In turn, `CN(C)CCN(C)Cc1ccc(-c2cccc(-c3nc4ccccc4[nH]3)c2)cc1` gave an IFI of 2.91%.
Regarding `O=C(Nc1ccc(C(F)(F)F)cc1)c1ccc(S(=O)(=O)NC2CCCN(CC3CCCCC3)C2)cc1` (centres undefined), the IFI was 4.82%.
Compound `CC1(C)[C@H]2CC[C@@H](CNc3nc(NCCc4c[nH]cn4)nc(Nc4ccc5c(c4)OCO5)n3)[C@@H]1C2` registered an IFI of 1.49%.
The figure for `COc1cc(SC)c(Br)cc1-c1nc2ccncc2[nH]1` is 2.78%; for `CC(C)N1CCCN(C(=O)C2CCN(c3ccc(C(=O)N4CCCC4)cn3)CC2)CC1` it is -0%.
In turn, `OCCN1CCN(Cc2ccc(-c3cccc(-c4nc5cc(F)ccc5[nH]4)c3)cc2)CC1` yielded an IFI of 3.92%.
Compound `O=C(c1ccccc1)N(Cc1ccccc1-c1ccc(CNCCc2ccccc2)cc1)C1CCN(Cc2ccccc2)CC1` had an IFI of 11%.
In turn, `Cc1cccc(NC(=O)c2ccc(C(=O)NC3CCN(CC4CCCCC4)C3)cc2)c1` (centres undefined) gave an IFI of 1.8%.
Next, `CCOC(=O)c1[nH]c2ccc(F)cc2c1NC(=O)CN1CCN(c2cccc(C(F)(F)F)c2)CC1`: 0.75%.
`Cc1cc(N[C@@H](CC(C)C)C(=O)NC2CCCC2)nc(NCC2CCCCC2)n1` gave an IFI of 4.65%.
In turn, `C=CCNS(=O)(=O)c1ccc(NC(=O)C(C)Oc2ccc([N+](=O)[O-])cc2)cc1` (centres undefined) had an IFI of 14.8%.
`Cc1cccc2nc(-c3ccc(-c4cccc(CNCCCNS(C)(=O)=O)c4)s3)[nH]c12` displayed an IFI of 3.96%.
The figure for `CCCCN1CCN(c2cc(NS(=O)(=O)c3ccc(C(=O)Nc4ccc(C(F)(F)F)cc4)cc3)ccc2OC)CC1` is 3.97%; for `OCCN1CCN(Cc2ccc(-c3cccc(-c4nc5cc(C(F)(F)F)ccc5[nH]4)c3)cc2)CC1` it is 6.86%.
Regarding `COc1ccc2nccc(NCC3(O)CCC(NCc4cc5c(cn4)OCCO5)CC3)c2n1` (centres undefined), the IFI amounted to 0%.
For `CC(C)C[C@@H](/C=N/NC(N)=O)NC(=O)[C@H](CC(C)C)NC(=O)[C@H](CC(C)C)NC(=O)OCc1ccccc1`, the IFI is 10.9%.
`Cc1cc2ncn(-c3nccc(NCc4cccnc4)n3)c2cc1C`: the IFI was 1.55%.
In the case of `CC(C)CCn1c(Sc2ccc(C#N)c([N+](=O)[O-])c2)nnc1-c1ccccc1Cl`, the IFI is 8.45%.
Compound `c1ccc2c(C3CCN(CCCCOc4ccc5c(c4)CCN(CC4CC4)CC5)CC3)c[nH]c2c1` showed an IFI of 11%.
`COc1ccc2nccc([C@@H](O)CN3CCC(NC(=O)c4cccc(-c5cc(C)no5)c4)CC3)c2c1` gave an IFI of 2.19%.
The figure for `Cc1ccc(-c2nc3cc(NC(=O)c4ccc([N+](=O)[O-])o4)ccc3o2)cc1Cl` is 0.72%.
`Clc1ncnc2scc(-c3ccc(Br)cc3)c12` showed an IFI of 3.6%.
In turn, `CN1CCN(c2ccc(Nc3ncc(C#N)c(Nc4ccccc4C(N)=O)n3)cc2)CC1` gave an IFI of 14.8%.
Consider `O=C(Nc1cc(F)cc(F)c1)NC1CCN(CCCCCNC(=O)C2CC2c2ccc(Cl)c(Cl)c2)CC1` (centres undefined), for which the IFI was found to be 11.5%.
In the case of `O=C(CN1CCN(C(=O)c2ccco2)CC1)Nc1ccccc1Br`, the IFI was -0%.
As to `O=C(Nc1ccc(OC(F)(F)F)cc1)NC1CCN(c2ccnc3ccccc23)C1` (centres undefined), the IFI was 7.81%.
`CC(=O)Oc1c(C2CCN(CCCCNC(=O)c3ccc(NC(=O)c4ccc(Cl)cc4)cc3)CC2)ccc2c1CCCC2` had an IFI of 4.27%.
`Cc1cccc2nc(-c3ccc(-c4cccc(NC(=O)NCc5cccc(F)c5)c4)cc3)[nH]c12` showed an IFI of 5%.
As to `CN(CCC1CCN(C(=O)/C=C/c2ccc(Cl)c(Cl)c2)CC1)C1CCC(c2c[nH]c3ccccc23)CC1` (centres undefined), the IFI turned out to be 9.63%.
As for `CCN(CC)CCCNCc1ccc(-c2ccc(C(F)(F)F)cc2)cc1`, the IFI worked out at 7.53%.
As for `Cc1cccc2nc(-c3ccc(-c4ccc(NC(=O)Nc5ccc(F)c(F)c5F)cc4)s3)[nH]c12`, the IFI stood at 7.92%.
Compound `O=C(Cn1cc(C=C2SC(=NC3CCCC3)N(C3CCCC3)C2=O)c2ccccc21)N1CCCC1` returned an IFI of 4.76%.
The figure for `CCc1ccc(NC(=O)c2ccc(CN3CCCN(Cc4cccc(O)c4)CC3)cc2)cc1` is 14.5%; for `Cc1[nH]c(C)c(-c2ccc(-c3ccccc3)nc2)c(=O)c1Br` it is -0%.
Regarding `CCN(CCCN1CCCCC1)c1cc(C)nc(Nc2cccc(C(F)(F)F)c2C)n1`, the IFI was 7.5%.
Next, `O=C(Nc1cccc(-c2ccc(-c3nc4cc(C(F)(F)F)ccc4[nH]3)s2)c1)c1c[nH]cn1`: 3.7%; `Cc1cc(OCC2CCN(c3ncc(C(=O)NC4CC4)cc3Cl)CC2)ccc1F`: 9.8%; `O=C(Nc1ccccc1Cl)c1cc2ccccc2cc1O`: 4.44%.
`FC(F)(F)c1ccc(-c2cncc(-c3ccc(C(F)(F)F)cc3)n2)cc1` displayed an IFI of -0%.
For `CN(CCCNCc1ccc2ccccc2c1)CCCNCc1ccc2ccccc2c1`, the IFI was found to be 7.91%.
`Cc1ccc(Cl)cc1NC(=O)c1c(-c2ccccc2Cl)noc1C` displayed an IFI of 1.48%.
`NS(=O)(=O)c1cccc(-c2ccc3ncc(N4CCOCC4)nc3c2)c1`: the IFI stood at 3.7%.
Next, `O=C(/C=C/c1ccc(Cl)c(Cl)c1)NCCCCCN1CCC(NC(=O)NCCc2ccccc2)CC1`: 3.36%.
Consider `Cc1cc(N(C)C)nc(Nc2ccc(NC(=O)c3ccc(F)cc3)cc2)n1`, for which the IFI came out at 5.41%.
Consider `CCN(CC)CCN(Cc1ccc(-c2ccc(C(F)(F)F)cc2)cc1)C(=O)Cn1c(CCc2cccc(F)c2F)nc(=O)c2ccc(C(F)(F)F)cc21`, for which the IFI was 4.55%.
Next, `COc1ccc2ncc(F)c(CCN3CC[C@H](NC(=O)c4ccc5c(n4)NC(=O)CS5)[C@H](O)C3)c2n1`: 2.88%.
`C=CCc1cc(C)ccc1OCCCON1C(N)=NC(N)=NC1(C)C` registered an IFI of 5.56%.
`CS(=O)(=O)CCNCc1cccc(-c2ccc3c(Nc4cc(O)c(Cl)cc4F)ccnc3c2)c1` showed an IFI of 3.76%.
Next, `COc1cc2nc(N3CCC(C(N)=O)CC3)nc(NCc3ccccc3)c2cc1OC`: 1.48%.
Turning to `Cc1ccccc1C1CCN(C2CCC(NC(=O)/C=C/c3ccc(OC(F)(F)F)cc3)CC2)CC1` (centres undefined), the IFI worked out at 14.8%.
The compound `Cc1cccc2nc(-c3cccc(-c4ccc(NC(=O)CN5CCOCC5)cc4)c3)[nH]c12` returned an IFI of 0.91%.
`N#Cc1cc([N+](=O)[O-])ccc1-n1nc(-c2cccc(Cl)c2)n(CC2CCCO2)c1=S` (centres undefined) returned an IFI of 0.68%.
As to `CN1CCC[C@H]1COc1ccc(CN2CC[C@H](NC(=O)c3ccc(Cl)c(Cl)c3)C2)cc1Br`, the IFI worked out at 6.67%.
The compound `CCOC(=O)CN1Cc2cc(NCc3ccc4ccc5nc(C)[nH]c(=O)c5c4c3)ccc2C1=O` gave an IFI of 2.26%.
`CCN(CC)CCN(Cc1ccc(-c2ccc(C(F)(F)F)cc2)cc1)C(=O)c1c[nH]c2ccc(Br)cc12` registered an IFI of 10.9%.
Next, `C[C@@H]([C@@H](CCCCc1ccccc1)C(=O)N[C@H](C(=O)Nc1cccnc1)C(C)(C)C)N(O)C=O`: 2.22%.
The figure for `O=c1c2ccccc2[nH]c2cc(Cl)ccc12` is 1.6%.
In turn, `c1cc(CN2CCN(CCN3CCOCC3)CC2)cc(-c2ccc(-c3nc4ccccc4[nH]3)cc2)c1` yielded an IFI of 2.82%.
Compound `Cc1cccc(Cl)c1Nc1nnc(-c2cccc(C(=O)NC[C@@H]3CC[C@H]4C[C@@H]3C4(C)C)c2)o1` registered an IFI of 2.96%.
Compound `COc1cccc(Cc2cnc3nc(N)nc(N)c3c2C)c1` gave an IFI of 1.46%.
In the case of `Cc1nc(C)c(-c2ccc(Cl)cc2)c(O)c1I`, the IFI came out at 1.54%.
Consider `CCN(CC)CCN(CCN(CC)CC)c1ccc(-c2nc3cc(Cl)c(Cl)cc3[nH]2)cc1`, for which the IFI is -0%.
Next, `CCCOc1ccccc1C(=O)Nc1nonc1-c1ccc(OCC)c(OCC)c1`: 6.82%; `COc1cc(CCNCC(O)c2ccc([N+](=O)[O-])c(OCc3ccccc3)c2)cc(OC)c1OC` (centres undefined): 4%; `c1ccc2c(Nc3ccc(Cc4ccc(Nc5c6ccccc6nc6ccccc56)cc4)cc3)c3ccccc3nc2c1`: 8.89%.
Consider `COCCN1CCN(Cc2ccc(-c3ccc(-c4nc5cccc(C)c5[nH]4)s3)cc2)CC1`, for which the IFI was found to be 6.86%.
As for `Clc1cc(Cl)cc(Nc2ccnc(Nc3cc(Cl)cc(Cl)c3)n2)c1`, the IFI came out at 2.33%.
Consider `CCCCCCCN(CCCCCCC)CCNc1cc(C)nc2ccccc12`, for which the IFI came out at 10.6%.
As for `CCN(CC)CCNc1ccnc2[nH]c3ccc([N+](=O)[O-])cc3c12`, the IFI was 1.48%.
Compound `CCN(CCCN1CCCCC1)c1cc(C)nc(Nc2ccc(Cl)cc2C)n1` registered an IFI of 5%.
As for `COc1ccc(CN2CCC(CNCCc3ccccc3Cl)CC2)cc1`, the IFI was 2.92%.
In turn, `CCC(C)(C)n1c(C)cc2c3c(N)nc(N)nc3ccc21` had an IFI of 9.15%.
The compound `COc1cccc(C(O)CNc2ccnc(Nc3ccc(Cl)cc3)n2)c1` (centres undefined) displayed an IFI of 19.8%.
In the case of `COCCOc1ccc(Nc2nccc(-c3c(-c4cccc(NC(=O)c5c(F)cccc5F)c4)nn4ccccc34)n2)cc1F`, the IFI turned out to be 4.14%.
In the case of `O=[N+]([O-])c1cccc(CNCC2CCN(CC3CCCCC3)CC2)c1`, the IFI worked out at 2.16%.
Next, `CCCNC[C@@H](O)[C@H](Cc1ccccc1)NC(=O)c1cc(NCC)cc(N2CCCC2=O)c1`: -0%.
`CCC(C)c1ccc(NC(=O)c2ccc(S(=O)(=O)Nc3ccc(OC)c(N4CCN(CC5CC5)CC4)c3)cc2)cc1` (centres undefined) had an IFI of 13.6%.
